The other results are listed elsewhere or left out. Sequences were assembled here from the parent chain. Inactive controls read about 0.05.
B1: TEV protease; numbered along this chain (parent)
chain: MGESLFKGPRDYNPISSSICHLTNESDGHTTSLYGIGFGPFIITNKHLFRRNNGTLVVQSLHGVFKVKDTTTLQQHLVDGRDMIIIRMPKDFPPFPQKLKFREPQREERICLVTTNFQTKSMSSMVSDTSCTFPSGDGIFWKHWIQTKDGQCGSPLVSTRDGFIVGIHSASNFTNTNNYFTSVPKNFMELLTNQEAQQWVSGWRLNADSVLWGGHKVFMVKPEEPFQPVKEATQL

Variants of: B1
Assay: raw area under fraction-flipped curve 0-4 h after induction (AUC4h, not background-subtracted), DNA-recorder readout of cleavage of the substrate (dimensionless); higher = more cleavage of the substrate by the protease variant
Settings: temperature: 34 °C; time window: 0-4 h after rhamnose induction
Method: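 In vivo DNA recorder in E. coli TOP10(DE3) ΔrhaA at 34 °C. Each TEVp single-site mutant (parent TEVp 0) is paired with a single-site variant of the 7-mer TEVs (canonical ENLYFQ|S). The substrate sits between flexible linkers in a Bxb1-sfGFP-TEVs-SsrA fusion, so cleavage stabilises Bxb1 and speeds flipping of a recombination array, read by NGS. The value is the raw area under the fraction-flipped curve over 0-4 h after rhamnose induction (AUC4h), with ≥20 reads per time point. It is not background-subtracted; inactive controls average about 0.047.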
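Further: Bxb1 expression induced with 0.2% (w/v) L-rhamnose at OD600 near 0.5, cultures sampled hourly, flipped fraction per protease–substrate barcode pair counted by paired-end Illumina sequencing.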

| Variant | area with substrate ENLYFAS | area with substrate ENLYFDS | area with substrate ENLYFES | area with substrate ENLYFFS | area with substrate ENLYFGS | area with substrate ENLYFHS | area with substrate ENLYFIS | area with substrate ENLYFKS | area with substrate ENLYFLS | area with substrate ENLYFMS | area with substrate ENLYFNS | area with substrate ENLYFPS | area with substrate ENLYFRS | area with substrate ENLYFSS | area with substrate ENLYFTS | area with substrate ENLYFVS | area with substrate ENLYFWS | area with substrate ENLYFYS | area with substrate ENLYFCS |
| --- | --- | --- | --- | --- | --- | --- | --- | --- | --- | --- | --- | --- | --- | --- | --- | --- | --- | --- | --- |
| G150W | 0.0556 | 0.0567 | 0.0602 | 0.0669 | 0.0626 | 0.0617 | 0.055 | 0.0691 | 0.0549 | 0.0599 | 0.0548 | 0.0598 | 0.0591 | 0.0653 | 0.0368 | 0.0596 | 0.0585 | 0.0508 | – |
| G150E | 0.0535 | 0.0687 | 0.0838 | 0.0745 | 0.0796 | 0.0481 | 0.0606 | 0.0612 | 0.0573 | 0.0557 | 0.0485 | 0.0601 | 0.0482 | 0.0616 | 0.0594 | 0.051 | – | 0.0533 | 0.0624 |
| V165E | 0.0601 | 0.05 | 0.0437 | 0.0581 | – | 0.0559 | 0.0438 | 0.035 | 0.0505 | 0.0561 | 0.0474 | 0.0528 | 0.0603 | 0.0462 | 0.0468 | 0.0539 | 0.0525 | 0.0414 | – |
| K148A | 0.0509 | 0.0666 | 0.0794 | 0.0689 | 0.0738 | 0.0309 | 0.0514 | 0.0483 | 0.0673 | 0.0642 | 0.0522 | 0.0587 | 0.0489 | 0.0929 | 0.0537 | 0.0535 | 0.0595 | 0.0573 | 0.0488 |
| F140R | 0.0561 | 0.0552 | 0.0616 | 0.0748 | 0.0677 | 0.0682 | 0.0606 | 0.0558 | 0.0509 | 0.061 | 0.0517 | 0.0516 | 0.0589 | 0.0645 | 0.0596 | 0.0577 | 0.0532 | 0.0502 | 0.0615 |
| I167K | 0.06 | 0.0558 | 0.0525 | 0.0634 | – | 0.0429 | 0.0499 | 0.0522 | – | 0.0508 | 0.0648 | 0.0541 | 0.0559 | 0.0541 | 0.0604 | – | 0.0609 | – | 0.0545 |
| K142G | 0.0593 | 0.0541 | 0.0589 | 0.0646 | 0.0556 | 0.0559 | 0.0557 | 0.0598 | 0.0339 | 0.0694 | 0.0659 | 0.067 | 0.0556 | 0.0508 | 0.0623 | 0.0607 | 0.0594 | 0.0597 | 0.0564 |
| G162C | 0.0269 | 0.0526 | 0.0673 | 0.0535 | – | 0.06 | 0.0659 | 0.0648 | 0.0596 | 0.0561 | 0.0585 | 0.0591 | 0.0623 | – | 0.0549 | 0.0609 | 0.0575 | 0.0491 | 0.061 |
| I164A | 0.0646 | – | 0.0434 | 0.0863 | – | 0.0398 | 0.0431 | 0.055 | – | – | – | 0.0493 | 0.0502 | 0.0476 | 0.0515 | – | 0.0612 | 0.0485 | 0.0566 |
| D128N | 0.0869 | – | 0.0651 | 0.0643 | 0.0731 | 0.0683 | 0.0621 | – | – | 0.0696 | 0.0614 | 0.0083 | 0.0705 | – | 0.0739 | 0.0652 | – | 0.0654 | 0.0548 |
| D128Y | 0.0698 | – | 0.0682 | – | 0.0438 | – | 0.0553 | – | – | 0.0407 | – | 0.0723 | – | 0.0529 | 0.0721 | – | – | 0.0491 | 0.0665 |
| D128R | 0.0862 | – | 0.067 | 0.0611 | – | 0.0529 | 0.0378 | – | 0.039 | 0.0787 | – | 0.0592 | 0.0625 | 0.0535 | – | – | – | – | – |
| D128W | 0.044 | – | – | 0.0509 | 0.0512 | – | 0.0645 | 0.0664 | 0.043 | 0.0911 | – | – | 0.0504 | 0.0481 | 0.0419 | – | – | – | 0.0702 |
| D161V | 0.0464 | 0.0434 | 0.0569 | 0.052 | 0.0596 | – | 0.0487 | 0.057 | 0.0497 | 0.0614 | 0.0376 | 0.0533 | 0.0571 | 0.0517 | 0.0527 | 0.0563 | – | 0.0548 | 0.0548 |
| H168L | 0.0935 | 0.0657 | 0.056 | 0.0654 | 0.0599 | 0.0589 | 0.0601 | – | – | 0.0507 | – | 0.0687 | – | – | 0.0458 | 0.0455 | – | 0.0545 | 0.0446 |
| H168F | 0.047 | – | 0.0603 | 0.0749 | 0.0439 | – | 0.0542 | 0.0576 | 0.065 | 0.0381 | 0.0564 | 0.0494 | 0.0513 | – | 0.0782 | 0.0705 | 0.0691 | 0.0544 | 0.0637 |
| H168A | 0.0562 | – | – | – | – | – | 0.0565 | – | 0.0606 | – | – | – | – | 0.0763 | 0.0592 | – | – | – | 0.0589 |
| H168G | 0.0646 | – | 0.0507 | 0.0568 | – | 0.0735 | 0.0543 | 0.0592 | 0.0652 | – | 0.0641 | 0.0648 | 0.0502 | – | 0.0574 | 0.0459 | 0.0527 | 0.0558 | 0.062 |
| H168E | 0.0673 | – | 0.0745 | 0.0639 | – | – | 0.0528 | 0.069 | – | 0.0459 | 0.0569 | 0.0514 | – | 0.0617 | 0.0808 | – | 0.0536 | 0.0513 | 0.0691 |
| H168I | 0.055 | 0.0673 | 0.0593 | 0.0703 | 0.0788 | 0.0648 | 0.0499 | 0.0643 | 0.0563 | 0.0595 | 0.0498 | 0.058 | 0.0549 | 0.0478 | 0.0624 | 0.0545 | 0.0759 | – | 0.0547 |
| H168D | 0.0592 | – | 0.0611 | 0.0654 | 0.0501 | – | 0.0541 | – | 0.0547 | 0.0622 | 0.0646 | 0.0559 | 0.0713 | 0.0582 | 0.0594 | 0.0516 | 0.0605 | 0.0492 | 0.0438 |
| H168Y | 0.068 | 0.0633 | – | 0.0605 | 0.0577 | – | 0.0585 | 0.0648 | 0.0416 | 0.0557 | 0.0619 | 0.0536 | 0.0504 | 0.0585 | 0.0612 | – | – | 0.0605 | 0.0472 |
| H168K | 0.0511 | 0.0672 | 0.0606 | 0.0628 | 0.0692 | 0.0535 | 0.0576 | – | – | – | – | 0.0573 | 0.0519 | – | 0.0888 | 0.0822 | 0.0621 | 0.0594 | 0.0574 |
| H168Q | 0.0782 | – | 0.0545 | 0.0688 | – | 0.0549 | 0.0538 | 0.0767 | 0.0554 | 0.0541 | 0.0614 | 0.0631 | 0.0553 | 0.0535 | 0.0592 | 0.0624 | 0.0397 | – | 0.039 |
